# Measured values taken from PubChem BioAssay AID686979 (National Center for Advancing Translational Sciences (NCATS), 2013).
# Screen size: about 420,000 compounds; about 50,000 (12%) were called active. Inconclusive means that the source gave no clear call. Such entries were picked first, then a sample of the others. Calls come from the whole dose curve; as a rule, active = well fitted inhibition curve with a large enough effect; inconclusive = small, poorly fitted or top-dose-only effect; inactive = flat fitted curve, though single readings scatter. Potencies of inconclusive entries are left out as doubtful fits.
# Test: qHTS for Inhibitors of human tyrosyl-DNA phosphodiesterase 1 (TDP1): qHTS in cells in presence of CPT; note: nearly all actives have a fitted effect of over 55% in size
# Conditions: chicken DT40 Tdp1-/-;hTDP1 cells + 20 nM CPT, ATP luminescence, 48 h; series mostly up to 46.2 µM
# How it was run: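 Chicken DT40 Tdp1-/- cells stably complemented with human TDP1 were seeded at 400 cells/well in medium containing 20 nM camptothecin, exposed to pin-transferred compounds, and grown at 37 °C for at least 48 hr. Viability was read as ATP luminescence.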
# Potency is the fitted concentration of half-maximal effect; tags give direction and shape of the fitted curve.
row,SMILES,Potency
1,COc1cccc(-c2nc(CS(=O)CC(=O)NC(C)CCc3ccccc3)c(C)o2)c1 (configuration not stated),"inconclusive [inhibitor, single point]"
2,O=C(Nc1cccc(C(=O)O)c1)/C(=C\c1ccccc1Cl)NC(=O)c1ccco1,inactive
3,O=[N+]([O-])c1ccc(F)cc1Oc1nc(-c2cccnc2)nc2ccccc12,active: 18.4 µM
4,CC(C)Cc1ccc(C(=O)Nc2ccc(Cc3ccncc3)cc2)o1,"inconclusive [inhibitor, partial curve, poor fit]"
5,COCCNC(=O)C1(C)CCCN(C(=O)c2cccc(C#N)c2)C1 (configuration not stated),inactive
6,CCOC(=O)C1=CC[C@@H](c2ccc(F)cc2)N(S(=O)(=O)c2ccc(C)cc2)[C@H]1c1ccccc1,active: 16.4 µM
7,CN(c1ccccc1)S(=O)(=O)c1cccc(NC(=O)C2=NNC(=O)CC2)c1,"inconclusive [inhibitor, partial curve]"
8,COc1cccc(/C=N/NC(=O)C(C)Cn2cnc3ccccc32)c1 (configuration not stated),inactive
9,O=C(c1ccccc1Br)N1N=C(c2ccccc2)CC1c1ccccc1F (configuration not stated),"inconclusive [inhibitor, single point]"
10,CCCc1cc(NCCCN2CCOCC2)n2c(nc3ccccc32)c1C#N,active: 16.4 µM
11,CCn1c(CSc2nc(C)cc(C)n2)nnc1SCC(=O)Nc1nc(-c2ccccc2)cs1,active: 20.6 µM
12,O=C(c1ccco1)N1CCN(Cc2cc(=O)c(OCc3ccc([N+](=O)[O-])cc3)co2)CC1,inactive
13,CN(C)CCN(Cc1ccccc1)C(=O)c1[nH]c(C(F)(F)F)nc1-c1ccccc1,inactive
14,COc1ccccc1CN1C(=O)CN(C2CCCC2)C(=O)C1c1ccc(F)cc1 (configuration not stated),"inconclusive [inhibitor, partial curve]"
15,COc1ccc(NC(=O)Cn2c(=O)oc3cc(S(=O)(=O)N4CCCCCC4)ccc32)cc1OC,active: 16.4 µM
16,O=C(CSc1nc2[nH]ncc2c(=O)n1-c1ccc(Cl)c(Cl)c1)NCc1ccccc1Cl,"inconclusive [inhibitor, single point]"
17,COc1ccc(-c2noc(CCC(=O)Nc3cccc(C)c3)n2)cc1,"inconclusive [inhibitor, single point]"
18,COc1ccc(CN2C(=O)C(CC(=O)NCCCCc3ccccc3)CC(C(=O)N(C)C)=C2C)cc1 (configuration not stated),"inconclusive [inhibitor, single point]"
19,COc1cccc(OC)c1C(=O)Nc1ccc(N2CCN(C(=O)c3ccco3)CC2)cc1,inactive
20,O/N=C/c1ccc(OCC(O)COc2ccc(/C=N/O)cc2)cc1,"inconclusive [inhibitor, single point]"
21,CCC(C)NCCOCCOc1ccc(Cl)c(C)c1C (configuration not stated),active: 14.6 µM
22,CCOC(=O)c1c(CN2CCN(CCO)CC2)n(-c2ccccc2)c2cc(Br)c(O)cc12,"inconclusive [inhibitor, single point]"
23,COc1cccc(N2C(=O)C3NN=C(C(=O)CN4C(=O)c5ccccc5C4=O)C3C2=O)c1 (configuration not stated),inactive
24,CCn1c(N)c(C(=O)Nc2ccccc2C(=O)OC)sc1=S,"inconclusive [inhibitor, single point]"

row,SMILES,Potency
1,CN(CC(=O)Nc1cccc(F)c1)C(=O)c1cn(-c2ccccc2)nc1-c1ccccc1,"inconclusive [inhibitor, single point]"
2,COc1ccc(CNC(=O)C2CCN(S(=O)(=O)c3ccc(N4CCCC4=O)cc3)CC2)cc1,active: 25.9 µM
3,Cc1cc(=S)nc(-c2ccccn2)[nH]1,active: 3.26 µM
4,COCCSc1nnc(NC(=O)c2ccc([N+](=O)[O-])cc2)s1,inactive
5,NC(=O)c1ccc(NC(=O)COC(=O)CC2CC3CCC2C3)cc1 (configuration not stated),inactive
6,C=C(C)[C@@H]1CC=C(CN2CCC(N3CCC(C(=O)N4CCCC4)CC3)CC2)CC1,active: 20.6 µM
7,Cc1cc(NC(=O)CCC(=O)N(Cc2ccccc2)C(C(=O)NC2CCCC2)c2ccc(C)o2)no1 (configuration not stated),inactive
8,O=C(Nc1ccc(Cl)cn1)Nc1ccccc1F,"inconclusive [inhibitor, partial curve, poor fit]"
9,Cc1cc(C(=O)NNC(=S)NCc2ccccc2)cs1,inactive
10,Cc1ccc(S(=O)(=O)N(CC(=O)N2CCc3ccccc3C2)c2cccc(Cl)c2)cc1,"inconclusive [inhibitor, single point]"
11,CC[C@H](CC[C@@H](C)C1CC[C@H]2[C@@H]3CC=C4C[C@@H](O)CC[C@]4(C)[C@H]3CC[C@]12C)C(C)C (some centres not stated),inactive
12,Cc1cc(C)c(S(=O)(=O)Nc2nnc(C)s2)c(C)c1,active: 14.6 µM
13,COc1ccc(C2NCCc3c2[nH]c2ccccc32)cc1CSc1nc2ccccc2s1 (configuration not stated),"inconclusive [inhibitor, single point]"
14,Cc1cccc(OCC(=O)NCc2cc(C)nc3ccccc23)c1,"inconclusive [inhibitor, single point]"
15,CCCCNC(=O)O[C@@H]1C[C@H]2CCC(=O)N3CC[C@@H](C1)[C@@H]23,"inconclusive [inhibitor, full curve]"
16,COc1ccc(C(=O)OCc2c(-c3ccccc3)ncc3ccccc23)cc1,active: 16.4 µM
17,Cc1ccc(NC(=O)c2cnc(N3CCCC3)nc2C)cc1F,inactive
18,O=C(Nc1ccc2c(c1)OCO2)c1cc(C2CCCCN2C(=O)CCCc2ccccc2)on1 (configuration not stated),"inconclusive [inhibitor, single point]"
19,COc1ccc(Nc2ncnc3c2cnn3-c2cccc(C)c2)cc1OC,"inconclusive [inhibitor, full curve, poor fit]"
20,COc1ccc(NC(=O)COc2cccc(C(F)(F)F)c2)cn1,inactive
21,N#C/C(=C\c1ccccc1C(=O)O)c1nc2ccccc2[nH]1,inactive
22,CCC1C(C#N)=C(SCC(N)=O)NC2=C1C(=O)CC(C)(C)C2 (configuration not stated),"inconclusive [inhibitor, single point]"
23,Cc1cccc([C@@H]2[C@@H]3C(=O)N(Cc4ccccc4)C(=O)[C@@H]3[C@]3(Cc4ccc(Cl)cc4)C(=O)N(c4ccc(Br)cc4)C(=O)N23)c1,inactive
